Reference: PubChem BioAssay AID1963978 (Molecular Pharmacology Branch, DTP, NCI, 2024)
The source holds more than one record for some entries. They are shown here; other results are not. The source may hold further records. Results that share an entry are repeats in other runs, samples, wells, individuals or studies.

Test system: 616215-338-R-J1-PDC spheroids with HUVEC/MSC, viability
Assay: Anticancer human tumor 616215-338-R-J1-PDC patient-derived colon adenocarcinoma cell line growth inhibition [PI3K]
Conditions: for IC50: compound alone; for viability, T/C: stronger effect = lower value
Description: Combinatorial screen of targeted agents with the PI3K inhibitors inavolisib, alpelisib, duvelisib, and copanlisib in multi-cell type tumor spheroids
A high-throughput screen of multi-cell type tumor spheroids was designed to identify active combinations of targeted small molecules and PI3K pathway inhibitors. Complex spheroids include a stromal component modeled by human endothelial cells (HUVEC) and fibroblasts modeled by human mesenchymal stem cells (MSCs). The concentration ranges selected for each drug and investigational agent were based upon clinically achievable concentrations if the clinical Cmax of the agent was known.
Compounds. The drugs and investigational agents: inavolisib (NSC800729), alpelisib (NSC765974), duvelisib (NSC772469), copanlisib (NSC816437), ipatasertib (NSC767898), afuresertib (NSC778305), talazoparib (NSC767125), sapanisertib (NSC764658), selumetinib (NSC741078), tovorafenib (DAY101, NSC766906), vemurafenib (NSC761431), ravoxertinib (NSC781343), sotorasib (NSC818433), MRTX1133 (NSC 836407), abemaciclib (NSC 768073), palbociclib (NSC758247), venetoclax (NSC 766270), SY5609 (NSC837396), enzalutamide (NSC755605), and darolutamide (NSC825331), were obtained from the National Cancer Institute (NCI) Developmental Therapeutics Program Chemical Repository. The FDA-approved anticancer drug set is available from the NCI Developmental Therapeutics Program. […] The stock solutions were prepared in dimethyl sulfoxide (DMSO, Sigma-Aldrich, St. Louis, MO, cat. D2650) at 800-fold the tested concentration and stored at -70 degrees C prior to their use. All drugs and investigational agents were tested over a range starting from a high concentration at or near the clinical Cmax and decreasing in half-log increments. If the clinical Cmax for an agent had not been determined, the highest concentration tested was 10 microM.
Cell Culture. All cells were maintained in an incubator at 37 degrees C and 5% CO2 with 95% humidity. The PDC lines were cultured according to standard operating procedures established by the NCI PDMR (https://pdmr.cancer.gov/sops/default.htm). All PDCs were thawed and cultured in Matrigel-coated flasks prepared with a working solution of 1X Ham's F-12 nutrient mix, without supplementation (Invitrogen, Waltham, MA, cat. 11765054), 100 U/mL penicillin-streptomycin (Invitrogen, cat. 15140122), and 2.5% Matrigel (Corning Inc., Corning, NY, cat. 354248) for the first three passages. The 354836-022-R-J1-PDC, 475296-252-R-J1-PDC, and 997726-040-R-J2-PDC lines were cultured in 6A media, which includes advanced DMEM/F-12 (Thermo Fisher Scientific, cat. 12634028), 10 mM HEPES (Thermo Fisher Scientific, cat. 15630080), 1X GlutaMAX supplement (Thermo Fisher Scientific, cat. 35050061), 0.1 mg/mL primocin (InvivoGen, San Diego, CA, cat. ant-pm-2), 10% defined fetal bovine serum, heat inactivated (HyClone Laboratories Inc., Logan, UT, cat. SH30070.03HI), 50% L-WRN conditioned media (ATCC, cat. CRL-3276), 1.25 mM N-Acetyl-L-cysteine (Sigma-Aldrich, cat. A9165), 10 mM nicotinamide (Sigma-Aldrich, cat. N0636), 1X B-27 supplement (Thermo Fisher Scientific, cat. 17504044), 1X N-2 supplement (Thermo Fisher Scientific, cat. 17502048), and 10 microM Y-27632 dihydrochloride (Tocris Bioscience, Bristol, United Kingdom, cat. 1254). The 624824-186-R-J2-PDC line was cultured in 6C/Colon 1B media, which includes all 6A media components plus 50 ng/mL human EGF recombinant protein (Thermo Fisher Scientific, cat. PHG0311). […]
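Further: spheroids exposed to agents for seven days before the viability read.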

In the case of `CC1(C)CCC(Nc2ncc(C(F)(F)F)c(-c3c[nH]c4c(P(C)(C)=O)c(C#N)ccc34)n2)CN1` (stereo not given), the IC50 is reported as 3.57 µM, 3.52 µM, < 31.6 nM, the viability, T/C (compound alone 0.0316 µM) is reported as 67.2, 45.5, 36.5, 41.2% and the viability, T/C (compound alone 0.316 µM) is reported as 65.1, 59.3, 36.2, 50.8%.
In the case of `C=CC(=O)N1CCN(c2nc(=O)n(-c3c(C)ccnc3C(C)C)c3nc(-c4c(O)cccc4F)c(F)cc23)C(C)C1` (stereo not given), the viability, T/C (compound alone 10 µM) is reported as 92.3, 98.4, 85.9, 71.3%.
In the case of `Cn1cnc2c(F)c(Nc3ccc(Br)cc3Cl)c(C(=O)NOCCO)cc21`, the IC50 is reported as > 3 µM, 1.07 µM, 1.56 µM, 1.98 µM.
In the case of `Cn1ncc(Cl)c1-c1cc(C(=O)NC(CN)Cc2cccc(F)c2)sc1Cl` (stereo not given), the viability, T/C (compound alone 3.16 µM) is reported as 83.4, 74.5, 61.6, 57.4%.
For `CC(C)NCC(C(=O)N1CCN(c2ncnc3c2C(C)CC3O)CC1)c1ccc(Cl)cc1` (stereo not given), the viability, T/C (compound alone 10 µM) was 48, 34, 25.6, 22.6%.
`CC1(C)CCC(CN2CCN(c3ccc(C(=O)NS(=O)(=O)c4ccc(NCC5CCOCC5)c([N+](=O)[O-])c4)c(Oc4cnc5[nH]ccc5c4)c3)CC2)=C(c2ccc(Cl)cc2)C1` was tested, and the IC50 was 4.72 µM, 4.82 µM, 4.69 µM, > 10 µM, the viability, T/C (compound alone 0.0316 µM) was 93.2, 89, 115, 88.1% and the viability, T/C (compound alone 10 µM) was 2.4, 2.03, 3.47, 107%.
For `CCN1CCN(Cc2ccc(Nc3ncc(F)c(-c4cc(F)c5nc(C)n(C(C)C)c5c4)n3)nc2)CC1`, the viability, T/C (compound alone 0.316 µM) was 114, 105, 146, 113% and the viability, T/C (compound alone 1 µM) was 115, 105, 108, 85.2%.
With `CC(Cn1ccc(-c2ccc(C#N)c(Cl)c2)n1)NC(=O)c1cc(C(C)O)[nH]n1` (stereo not given) the viability, T/C (compound alone 0.1 µM) was 94.3, 109, 82.5, 91.4% and the viability, T/C (compound alone 3.16 µM) was 95.8, 103, 97.8, 124%.
For `CCCS(=O)(=O)Nc1ccc(F)c(C(=O)c2c[nH]c3ncc(-c4ccc(Cl)cc4)cc23)c1F`, the viability, T/C (compound alone 3.16 µM) was 59.8, 68.4, 68.9, 85.3%.
